According to doi:10.1101/708180 (bioRxiv, 2019):

B1: cHSP27, isolated α-crystallin domain of HSP27 ([…]), oxidized disulfide-linked dimer (domain or fragment)
chain: not shown
B2: HSP27 (HSPB1) P182L variant, full length (natural protein)
chain: not shown
B3: cHSP27 with the C137S mutation (domain or fragment)
chain: not shown

How the values were obtained:
NMR 15N relaxation = target: the molecule itself; test: NMR 15N relaxation
SEC-MALS = target: the molecule itself; test: SEC-MALS

Protein | stoichiometry N (NMR 15N relaxation) | stoichiometry N (SEC-MALS)
B1 | 2 | –
B2 | – | ~620 subunits
B3 | – | 2
